Assay results from paper PMC6212790.
This is one part of the list. At the low end of the ranking the order means little.
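Note: rank score from −0.5 (least bound) to 0.5 (best bound).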

What follows are sequences tested against T1, GST-Rok-C97-191 (UniProt O34857) (assay: protein binding microarray). Details: Rok is a gene silencer of Bacillus subtilis; high values mean tight binding; most listed sequences are background and not binding sites; double strand, one strand shown.
T1 sequence: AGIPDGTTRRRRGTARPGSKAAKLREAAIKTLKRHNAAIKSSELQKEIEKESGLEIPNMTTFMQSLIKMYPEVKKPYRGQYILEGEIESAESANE
With GCCGCAGC the binding signal was -0.399 E-score. With ACATGACA the binding signal was -0.00816 E-score. CAGGTTGG showed a binding signal of -0.032 E-score. With TGTTTCAA the binding signal was 0.117 E-score. In the case of ACCCTTGC, the binding signal is reported as -0.283 E-score. With ATCATGTC the binding signal was -0.0597 E-score. With GCCTCTCC the binding signal was -0.327 E-score. CTCTCGGC gave a binding signal of -0.156 E-score. CTTGGGTC gave a binding signal of -0.162 E-score. With AGATTATC the binding signal was 0.264 E-score. With GACTACAC the binding signal was -0.000838 E-score. CTAGAACA was tested, and the binding signal was 0.166 E-score. CAATGTTC gave a binding signal of 0.0364 E-score. GCAGTCAA showed a binding signal of -0.132 E-score. AGTGGCTG gave a binding signal of -0.0693 E-score. ATAGCGAG gave a binding signal of 0.0604 E-score. AGACGTCT was tested, and the binding signal was 0.0885 E-score. With AAGTAGGA the binding signal was 0.0873 E-score. For TCCACCAA, the binding signal was -0.197 E-score. With AGCTTTTG the binding signal was -0.0272 E-score. Sequence CGGCTTAC has a binding signal of -0.204 E-score. In the case of TACCAAGA, the binding signal is reported as 0.143 E-score. Work on CCCATTTA yielded a binding signal of -0.101 E-score. CGGGAGTC gave a binding signal of -0.144 E-score. CTGTCGTC showed a binding signal of -0.189 E-score. With AACCTGGA the binding signal was -0.238 E-score. In the case of ACTATAAA, the binding signal is reported as 0.322 E-score. ACGGACAC showed a binding signal of -0.0606 E-score. ATTTTATC was tested, and the binding signal was 0.328 E-score. CACGCAAA showed a binding signal of -0.0897 E-score. CGAGCAGC showed a binding signal of -0.0166 E-score. For CATTGACC, the binding signal was -0.115 E-score. In the case of ATTAGTGA, the binding signal is reported as 0.126 E-score. ATTCTAAC gave a binding signal of 0.216 E-score. Sequence GCACAGGC has a binding signal of -0.199 E-score. Sequence ATACGTAC has a binding signal of 0.304 E-score. ACGTTAAT gave a binding signal of 0.172 E-score. ATTACTAG showed a binding signal of 0.392 E-score. With ATCTGGGC the binding signal was -0.117 E-score. With AGGGGGCG the binding signal was -0.328 E-score. For AAGCTCAT, the binding signal was 0.0848 E-score. With CGAAAATA the binding signal was 0.204 E-score. Sequence ATGACTTG has a binding signal of -0.13 E-score. Sequence ATGCCTTA has a binding signal of 0.0962 E-score. For TAGGGAAA, the binding signal was 0.102 E-score. With GAGACATC the binding signal was -0.0542 E-score. Work on GTACGCGA yielded a binding signal of 0.125 E-score. For AGTAATCG, the binding signal was 0.0918 E-score. CAACAACA was tested, and the binding signal was 0.152 E-score. For CGTCTCTC, the binding signal was -0.178 E-score. ACTTGGGA showed a binding signal of -0.0569 E-score. GATAAAAC was tested, and the binding signal was 0.211 E-score. For AGGTTACC, the binding signal was -0.0423 E-score. Work on AGGGACCA yielded a binding signal of -0.0833 E-score. ATTCTTAG showed a binding signal of 0.0803 E-score. CGGTGCGC was tested, and the binding signal was -0.271 E-score. With ATAAGATA the binding signal was 0.372 E-score. With ACTTCGAC the binding signal was 0.00083 E-score. GAAACTTC gave a binding signal of 0.204 E-score. Work on AACCCGCA yielded a binding signal of -0.235 E-score. In the case of ATCACTAG, the binding signal is reported as 0.212 E-score. For CAATGTTA, the binding signal was 0.195 E-score. CTATAGCA gave a binding signal of 0.132 E-score. GCTTGGTA gave a binding signal of -0.0211 E-score. Work on ACAACACG yielded a binding signal of 0.0409 E-score. GGCAGACA gave a binding signal of 0.0591 E-score. For AACGACTA, the binding signal was -0.0698 E-score. AACAAGAG was tested, and the binding signal was -0.0722 E-score. Work on CTTAACGC yielded a binding signal of -0.207 E-score. AGCGAGAT gave a binding signal of -0.133 E-score. With GCAGACTA the binding signal was 0.0523 E-score. CTCACTAC showed a binding signal of -0.0136 E-score. In the case of AACGTAGA, the binding signal is reported as 0.132 E-score. GCGATAGA showed a binding signal of 0.19 E-score. AAAAAGGA showed a binding signal of 0.00634 E-score. CGAGCTAG gave a binding signal of 0.00213 E-score. GGCCGTGA was tested, and the binding signal was -0.25 E-score. With GGACGTAC the binding signal was 0.00495 E-score. CGCAGACA showed a binding signal of -0.113 E-score. Sequence CAATATCA has a binding signal of 0.152 E-score. For GTTCTGGA, the binding signal was 0.0518 E-score. For GGCAATCA, the binding signal was -0.0587 E-score. In the case of CGAATGTA, the binding signal is reported as 0.201 E-score. For TGGGAGAA, the binding signal was 0.102 E-score. In the case of CGGCGGAG, the binding signal is reported as -0.206 E-score. Work on AGGACAAA yielded a binding signal of -0.0842 E-score.
